The list shows a part of the results. At the low end of the ranking, values are background and their order means little.

The experiment has as its target T1, GST-Rok-C97-191 (UniProt O34857).
T1 sequence: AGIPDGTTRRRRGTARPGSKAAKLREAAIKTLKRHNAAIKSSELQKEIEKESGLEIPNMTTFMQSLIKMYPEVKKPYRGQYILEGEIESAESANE
Put plainly: protein binding microarray.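 Further: rank score from −0.5 (least bound) to 0.5 (best bound).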 The following applies: Rok is a gene silencer of Bacillus subtilis; high values mean tight binding; most listed sequences are background and not binding sites; double strand, one strand shown.
As for CCTGAGCC, the binding signal is -0.316 E-score.

CCTACCGC had a binding signal of 0.0131 E-score. Then AGTATTGC, with 0.0149 E-score. Turning to AAAGATAG, the binding signal came out at 0.168 E-score.

Consider GCGTCCTA, for which the binding signal was -0.0931 E-score.

CTCTACGC showed a binding signal of 0.00966 E-score. Then CCTTTATA, with 0.193 E-score; and ACAATTGC, with 0.13 E-score.

Sequence AGGGGTTC returned a binding signal of -0.121 E-score.

Regarding CGTTGACC, the binding signal was -0.166 E-score. Take CACTCTTA: the binding signal is -0.0274 E-score. On to GAGAATAA, for which the binding signal is 0.0913 E-score. Then AGGAAAAG, with -0.183 E-score; and GGTGATGA, with -0.176 E-score. ATCTGTTG yielded a binding signal of -0.108 E-score. Next, CGATCTAC: 0.335 E-score. As to CATCTCAA, the binding signal was -0.0536 E-score. In the case of TGCTGGAA, the binding signal was -0.107 E-score.

The sequence ACCTAACT had a binding signal of 0.128 E-score. On to CCACGTAA, for which the binding signal amounted to 0.0808 E-score.

As for CGTGGAGC, the binding signal is 0.0609 E-score.

Sequence AGATTAAC gave a binding signal of 0.13 E-score. Take ACACGCAT: the binding signal amounted to 0.134 E-score.

Regarding AAGTATAC, the binding signal came to 0.273 E-score. In turn, ACAGCACC gave a binding signal of -0.133 E-score. CACCGGGA: the binding signal is -0.297 E-score. The sequence ACCACGAC showed a binding signal of -0.19 E-score.

In turn, GCAAGCTA came in with a binding signal of 0.0227 E-score. Sequence TGCACGAA displayed a binding signal of 0.0181 E-score. In the case of AGTAGGCG, the binding signal is 0.0257 E-score. GTCAGGAA had a binding signal of -0.15 E-score. Regarding CAAACTTA, the binding signal is 0.101 E-score. GATGCCAA registered a binding signal of -0.209 E-score. The sequence CATTTAAA showed a binding signal of 0.112 E-score. AAGCATTA came in with a binding signal of 0.064 E-score. CCCTCCCA yielded a binding signal of -0.186 E-score. Then AGGAAAAT, with 0.177 E-score; and TACTAGTA, with 0.433 E-score; and CTCCGATA, with 0.0895 E-score.

The sequence GGAATGGA displayed a binding signal of -0.114 E-score. Turning to CCTCTAGA, the binding signal was -0.0559 E-score.

ATATGAGC gave a binding signal of -0.00733 E-score. For the sequence AACCTATC, the binding signal was found to be 0.152 E-score. Then GGCTGCTA, with -0.11 E-score; and CAACAGCC, with -0.261 E-score. Regarding ACGAATTG, the binding signal worked out at 0.183 E-score. For the sequence GTGGTCGA, the binding signal was -0.197 E-score. Turning to ACGTAGCG, the binding signal was 0.0725 E-score.

GGCCAAGA had a binding signal of 0.11 E-score. Then GACCGGAC, with -0.126 E-score. AAGCCACC had a binding signal of -0.213 E-score. Regarding AATTGAAT, the binding signal is 0.0946 E-score. The sequence GCACGAAC showed a binding signal of -0.164 E-score. CTGGCGGA had a binding signal of -0.283 E-score. ACACCTAC: the binding signal is 0.0429 E-score.

In turn, GCCCAAGC came in with a binding signal of -0.319 E-score. Sequence CGACTACC returned a binding signal of 0.000144 E-score. CACGGGGC: the binding signal was -0.279 E-score. TGAGGCAA showed a binding signal of -0.148 E-score.

CATGACGA: the binding signal came to 0.043 E-score. In turn, TCCAAGGA had a binding signal of 0.068 E-score. In turn, GGGATGCA came in with a binding signal of -0.184 E-score.

As for ACCACACG, the binding signal is 0.161 E-score. As for CGTACTTA, the binding signal turned out to be 0.23 E-score. GATCCCGA gave a binding signal of -0.0184 E-score. Then CGCGCGAA, with 0.0798 E-score.

For GCTGTAGA, the binding signal was -0.0314 E-score. As to GCTATGTA, the binding signal was determined as 0.226 E-score. The sequence CTTCCTAC returned a binding signal of 0.0841 E-score. Sequence CGCGGAGA gave a binding signal of -0.25 E-score.

Consider ATACCGTA, for which the binding signal was found to be 0.276 E-score. Next, AGACGGAA: -0.125 E-score; GTCATCTA: 0.062 E-score; GCGTTAGA: 0.0324 E-score. Take CAGAGCTC: the binding signal is -0.157 E-score. Sequence GCAATATA registered a binding signal of 0.224 E-score. As for CTTTAAGC, the binding signal is 0.00949 E-score. Consider AGTCTAAC, for which the binding signal is 0.0311 E-score. Then AGGATCAC, with -0.0797 E-score; and GGATAGGA, with 0.012 E-score. As to CAATCCAC, the binding signal was -0.074 E-score. With CCCTAATC, the binding signal is -0.0259 E-score. In turn, ACTGTGGC had a binding signal of -0.225 E-score. For AGCCTACA, the binding signal came to 0.00191 E-score. In the case of CCCTTTCG, the binding signal is -0.277 E-score. Turning to ACCAAGGC, the binding signal was -0.154 E-score. The sequence ATGCCACC showed a binding signal of -0.123 E-score.

Turning to CAGTTGAC, the binding signal came out at 0.0118 E-score. For the sequence CAGACATG, the binding signal is -0.197 E-score. In turn, GAACTAGC showed a binding signal of 0.205 E-score. Turning to ACCTATTG, the binding signal was determined as 0.2 E-score. ATGGCTTA gave a binding signal of -0.00631 E-score. CTTGCTTC: the binding signal is -0.269 E-score. CGCGTTCA came in with a binding signal of -0.0369 E-score. As to AACGTCCA, the binding signal is -0.202 E-score. As to GGGCGGAC, the binding signal was -0.368 E-score.

With CGTTTAAA, the binding signal is -0.14 E-score. Then AACGCTCT, with -0.0799 E-score; and GACAGTGC, with -0.306 E-score. Turning to GTAGCACA, the binding signal was 0.0948 E-score. Then AAAGCCAG, with -0.0469 E-score; and AAACCGTC, with -0.0773 E-score. In turn, GGCCTCCA displayed a binding signal of -0.323 E-score.

Sequence TGACATCA returned a binding signal of -0.115 E-score.

GAACGTTC: the binding signal worked out at 0.053 E-score. In turn, GGCGTACC showed a binding signal of -0.176 E-score. Then CGGGCTGC, with -0.268 E-score; and CGACTGCC, with -0.232 E-score. Then ACGAATAA, with -0.0222 E-score; and AAAGACGA, with 0.0425 E-score; and GCAATGTA, with 0.23 E-score. The sequence GAGCAGAC displayed a binding signal of -0.089 E-score. For CTGAGTGA, the binding signal was -0.127 E-score. The sequence CGGATGAG returned a binding signal of -0.141 E-score.

Sequence ACCGATAC displayed a binding signal of 0.0875 E-score.

On to ACTCTCTA, for which the binding signal is -0.0467 E-score.

The sequence CTCTCAGC registered a binding signal of -0.3 E-score.

For CTTGAGGC, the binding signal was -0.211 E-score. Then AGGAGATC, with -0.0805 E-score; and ACGAACTC, with -0.0425 E-score.

Take AATGCTTG: the binding signal came to 0.0398 E-score. Then ATGGAATC, with -0.0254 E-score; and AATTCAAC, with 0.00661 E-score. In turn, CAGAGCGG gave a binding signal of -0.191 E-score. GTGTCAGA had a binding signal of -0.197 E-score. For the sequence ATTTTGAA, the binding signal came out at 0.154 E-score.

GCACCTTA gave a binding signal of -0.00958 E-score. Next, AGAAAGGG: -0.0748 E-score; GGAGTGCC: -0.247 E-score.

In turn, AGATCGCC displayed a binding signal of -0.156 E-score.

Take CAAAAGAC: the binding signal was -0.0459 E-score. As for CGACTCGA, the binding signal was -0.031 E-score. Consider GAATATCA, for which the binding signal is 0.071 E-score. As for ACACAGGG, the binding signal is -0.1 E-score. In turn, CGCTCCCG returned a binding signal of -0.408 E-score. CGATATAC showed a binding signal of 0.234 E-score. Then ATTTGGCG, with -0.0817 E-score.

The sequence CCAGCTCG showed a binding signal of -0.079 E-score. Regarding GCAATTCC, the binding signal was 0.0302 E-score. In turn, AGCGTTTG displayed a binding signal of 0.0655 E-score. Sequence AGATGCTA had a binding signal of 0.196 E-score. ACCTAACG showed a binding signal of -0.0851 E-score. Then ATCGCTCG, with -0.0453 E-score; and ACTATACG, with 0.0223 E-score.

On to TCGGAGCA, for which the binding signal is 0.0824 E-score. Sequence CTAGGAAG displayed a binding signal of 0.0357 E-score. Sequence ACTCGCCG yielded a binding signal of -0.26 E-score. The sequence CCAATTCC yielded a binding signal of 0.138 E-score.

For GCATGTGA, the binding signal was -0.0721 E-score. With GTCCAGGA, the binding signal is -0.0853 E-score. Next, AATCGTGC: -0.172 E-score; ACTTCCTG: -0.045 E-score. In turn, CCGCGAGC gave a binding signal of -0.26 E-score.

As for ACAGCGGC, the binding signal was -0.093 E-score.

AGCTTCCT: the binding signal is -0.0469 E-score. As for CAACGACC, the binding signal was -0.0417 E-score. Then AAAACTAA, with 0.255 E-score. Sequence CGGCTTAG came in with a binding signal of -0.206 E-score.

In the case of ACCGACAA, the binding signal was determined as 0.126 E-score. GAACGGTC had a binding signal of -0.0912 E-score.

The sequence ACACCTCT yielded a binding signal of -0.0324 E-score.

The sequence CCGATTAA returned a binding signal of 0.16 E-score.

Turning to CTCTGTCA, the binding signal was -0.161 E-score. CGCTGACC returned a binding signal of -0.153 E-score. In turn, GTCGGTCA came in with a binding signal of -0.0215 E-score. As for ATGGGCTG, the binding signal is -0.294 E-score. Turning to CCCCACAG, the binding signal is -0.201 E-score.

In turn, AGTGACGC had a binding signal of -0.00501 E-score. The sequence GCCTTTAA registered a binding signal of -0.213 E-score. Turning to AGGGAATC, the binding signal is -0.0283 E-score. ATATGTCC came in with a binding signal of 0.138 E-score. AAGCCCGT registered a binding signal of -0.129 E-score. Sequence GCCTACCC registered a binding signal of -0.254 E-score. Then GAGACCAA, with -0.15 E-score; and GCACGGAC, with -0.195 E-score. In turn, GCATAATA had a binding signal of 0.158 E-score. Next, CTACCACC: 0.285 E-score; CGTGAAAG: -0.0741 E-score. Regarding AGTATTCA, the binding signal turned out to be 0.0845 E-score.

Regarding AAATGAGT, the binding signal was -0.0693 E-score. For the sequence AGGAACGA, the binding signal is -0.162 E-score. As to CGCGACAC, the binding signal was -0.15 E-score.

As to ACACTCCC, the binding signal was -0.108 E-score. Then CTAGCCAA, with 0.106 E-score. Next, GACGAAGC: -0.17 E-score; AATCGTAT: 0.202 E-score; CTGATCCA: -0.15 E-score. CTGCCGAC: the binding signal is -0.293 E-score. With ATGGCGCC, the binding signal was -0.143 E-score. Turning to GAAAGACA, the binding signal was -0.0886 E-score. GCTCCTCC displayed a binding signal of -0.117 E-score. Consider CCCCGAGC, for which the binding signal is -0.0928 E-score. As for AGGGTCCA, the binding signal is -0.233 E-score. Then CGCAGTCA, with -0.135 E-score. TCCCGAAA: the binding signal is -0.0535 E-score. AACAGCGA gave a binding signal of -0.0418 E-score. Then AGTAGTAT, with 0.368 E-score. Sequence AGTAAGCC showed a binding signal of -0.169 E-score.

Sequence CATCGATC yielded a binding signal of -0.0905 E-score. The sequence CCAGCCTC gave a binding signal of -0.269 E-score. GTTGATCA displayed a binding signal of -0.11 E-score. On to CCAGTTCA, for which the binding signal amounted to 0.00993 E-score. ACAATTTA returned a binding signal of 0.29 E-score. Next, GCCTGCCA: -0.249 E-score; CATCTTCG: -0.0283 E-score.

In turn, GTTTGATA returned a binding signal of 0.106 E-score. Then TCAGAGGA, with -0.139 E-score.

The record behind these values is paper PMC6212790.
